Assay results taken from PubChem BioAssay AID624417 (National Center for Advancing Translational Sciences (NCATS), 2012).
Out of some 410,000 compounds screened, about 6,400 (1.6%) were called active. This list was built around the results that the source calls inconclusive (neither active nor inactive); the mix of calls is not that of the screen. The call rests on the fitted dose curve; in most records, active means well fitted inhibition curve with a large enough effect; inconclusive means small, poorly fitted or top-dose-only effect; inactive means no such curve, though single readings can be large or run the other way. No potency is given beside an inconclusive call; the fits are too rough.

Target: Glucagon-like peptide 1 receptor (Homo sapiens) (UniProt P43220)
Experiment: qHTS of GLP-1 Receptor Inverse Agonists (Inhibition Mode); further: nearly all actives have a fitted effect of over 55% in size
Conditions: HEK293 GLP-1R CRE-luciferase, luminescence, 24 h, GLP-1R form is constitutively active; series mostly up to 38.3 µM
In short: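 HEK293 cells stably co-expressing a cAMP-responsive luciferase reporter and constitutively active GLP-1R were seeded, incubated 12 h, then exposed to compounds for 24 h at 37 C. Luminescence was read 12 min after detection reagent; inverse agonists lower signal.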
Potency means the concentration at half of the fitted maximal effect; tags describe the fitted curve by direction and shape.

Chain of UniProt P43220 (P43220 whole entry, looked up): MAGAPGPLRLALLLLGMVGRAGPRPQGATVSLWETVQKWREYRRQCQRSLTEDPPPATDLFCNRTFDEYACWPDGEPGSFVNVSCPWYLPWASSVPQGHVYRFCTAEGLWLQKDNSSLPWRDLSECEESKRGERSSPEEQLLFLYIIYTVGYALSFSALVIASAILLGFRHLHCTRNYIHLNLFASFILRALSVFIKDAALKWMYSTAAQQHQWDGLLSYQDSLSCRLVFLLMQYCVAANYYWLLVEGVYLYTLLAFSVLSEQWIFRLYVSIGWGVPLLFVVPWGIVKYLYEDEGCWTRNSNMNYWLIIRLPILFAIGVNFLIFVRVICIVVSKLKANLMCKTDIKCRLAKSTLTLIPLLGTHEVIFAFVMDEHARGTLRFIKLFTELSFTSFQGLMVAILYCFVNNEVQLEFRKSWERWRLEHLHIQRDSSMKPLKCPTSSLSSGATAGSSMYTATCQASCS

SMILES | Potency
O=S(=O)(NCCOCC(F)(F)F)c1ccc2oc3ccccc3c2c1 | inconclusive [inhibitor, single point]
CCCCC(=O)N(C)c1c(CC)nc2c(OCC=C(C)C)cccn12 | inconclusive [inhibitor, partial curve, poor fit]
Cc1c2c(=O)n(-c3nc4ccccc4s3)nc-2cc(O)n1Cc1ccccc1 | inconclusive [inhibitor, partial curve, poor fit]
Cc1ccc(CNC(=O)CN2CCN(Cc3ccc(C)cc3)C2=O)cc1 | inconclusive [inhibitor, single point]
Cn1cnnc1Sc1cc(N2CCN(S(=O)(=O)c3ccc(Cl)c(Cl)c3)CC2)ccc1[N+](=O)[O-] | inconclusive [inhibitor, partial curve, poor fit]
CCOc1ccc(CCNC(=O)Cn2cccc2C(=O)c2ccccc2C)cc1OCC | inconclusive [inhibitor, partial curve, poor fit]
O=C(CC1N=C2c3ccccc3N=C(SCc3cccc(Cl)c3)N2C1=O)NCCc1ccccc1 (centres undefined) | inconclusive [inhibitor, single point]
O=C(Nc1nc2ccccc2s1)C1CC(=O)N(c2ccc(Cl)cc2)C1 (centres undefined) | inconclusive [inhibitor, single point]
CCCS(=O)(=O)c1nnnn1-c1cccc(OC)c1 | inconclusive [inhibitor, single point]
CCC1=C(c2ccc(C)cc2)S(=O)(=O)N=C1N1CCC(C(=O)NCCc2ccc(Cl)cc2)CC1 | inconclusive [inhibitor, partial curve, poor fit]
Cc1ccc(Cl)c(OCC(=O)NN2CCN(C)CC2)c1 | inconclusive [inhibitor, single point]
O=C(CCC1CCCC1)Nc1cccn(Cc2ccccc2Br)c1=O | inconclusive [inhibitor, partial curve, poor fit]
Cc1ccc(C)c(OCCn2cc(/C=C(\C#N)C(=O)NCC3CCCO3)c3ccccc32)c1 (centres undefined) | inconclusive [inhibitor, partial curve, poor fit]
CC(C)C(=O)Nc1ccc(NC(=S)NC(=O)c2ccc([N+](=O)[O-])cc2)cc1 | inactive
CCOc1ccc(/C=N/NC(=S)NC2CC3CC2C2C=CCC32)cc1 (centres undefined) | inconclusive [inhibitor, partial curve, poor fit]
COc1cc2c(cc1NC(=O)Nc1cccc(C)c1)oc1ccccc12 | inactive
O=C(CSc1nc(-c2ccccc2)cs1)Nc1ccccc1[N+](=O)[O-] | inconclusive [inhibitor, single point]
Cc1oc(-c2ccc(C(=O)NCc3ccccc3Cl)cc2)nc1CN1CCc2ccccc21 | inconclusive [inhibitor, partial curve, poor fit]
Cc1c(NC(=O)CSCc2c(F)cccc2Cl)c(=O)n(-c2ccccc2)n1C | inconclusive [inhibitor, full curve, poor fit]
CN(CC(=O)Nc1ccc(OC(F)(F)F)cc1)C1CCCCC1 | inconclusive [inhibitor, partial curve, poor fit]
NNc1nc2c(-c3cccc(C(F)(F)F)c3)nnn2c2ccccc12 | inconclusive [inhibitor, single point]
COc1cccc(NC(=O)CN2CCN(S(=O)(=O)c3ccc(F)cc3)CC2)c1 | inactive

SMILES | Potency
COCc1cc(=O)[nH]c2cc(NC(=O)C3CC3)c(C)cc12 | inactive
CCCCCC(=O)N1C[C@H](n2cc(COC(=O)c3ccccc3)nn2)[C@@H](O)C[C@@H]1c1ccc(Cl)cc1 | inconclusive [inhibitor, partial curve, poor fit]
CC(C)C[C@H](NC(=O)N1CC(=O)Nc2ccccc21)C(=O)N1CCC(C(=O)O)CC1 | inconclusive [inhibitor, single point]
Cc1ccc(NC(=O)C(Cc2ccccc2)N2Cc3ccccc3C2=O)cc1Cl (centres undefined) | inconclusive [inhibitor, single point]
COc1cc(NC(C)CCc2ccccc2)cc(OC)c1OC (centres undefined) | inconclusive [inhibitor, partial curve, poor fit]
CC(=O)c1ccc(CCCCc2ccc(C(C)=O)cc2)cc1 | inconclusive [inhibitor, partial curve, poor fit]
CCN(CC)CCN(C(=O)c1ccc2c(c1)CCCC2)c1nc2ccc(OC)cc2s1 | inconclusive [inhibitor, partial curve, poor fit]
Cc1ccc(NC(=O)CSc2nnc([C@@H]3CCCN3C(=O)OC(C)(C)C)o2)c(C)c1 | inactive
Cc1nc2ccc(C(=O)OCc3ccccc3Br)cc2nc1C | inactive
CO/N=C\CC(=O)Nc1ccc(Cl)c(Cl)c1 | active: 3.16 µM
CCOC(=O)N1CCN(CC(=O)Nc2sc(CC)cc2C(=O)c2ccc(OC)cc2)CC1 | active: 5.62 µM
CCOC(=O)C1=C(C)NC(C)=C(C(=O)OCC)C1C(=O)OCC(=O)NC(C)c1ccccc1 (centres undefined) | inconclusive [inhibitor, single point]
COc1ccc2c(c1)O[C@H](c1ccc3c(c1)OCO3)[C@@H](O)C2=O | inactive
COc1ccc(NC(=O)N2CCCC(c3ccccc3)C2)cc1 (centres undefined) | inconclusive [inhibitor, partial curve, poor fit]
O=c1c2ccccc2n2c(-c3ccccc3F)nnc2n1CCc1ccccc1 | inactive
O=C(Nc1ccc2c(c1)OCCO2)c1ccccc1Cl | inconclusive [inhibitor, partial curve, poor fit]
COCCn1c(C)cc(C(=O)COC(=O)c2n[nH]c3ccccc23)c1C | inconclusive [inhibitor, partial curve, poor fit]
Cc1ccc(C(=O)N(c2ccc(C)cc2)S(=O)(=O)c2ccc(Cl)cc2)cc1 | inconclusive [inhibitor, single point]
COc1cc(OC)c(N(C)S(=O)(=O)c2cccc(C(=O)Nc3nnc(C4CC4)s3)c2)cc1Cl | inactive
c1ccc2c(c1)oc1c(N3CCN(Cc4ccc5c(c4)OCO5)CC3)ncnc12 | inconclusive [inhibitor, single point]
COc1cc2cc(C(=O)O)[nH]c2c(OC)c1OC | inactive
CC(Oc1ccccc1)C(=O)N1CCN(S(=O)(=O)c2ccc(OC(F)(F)F)cc2)CC1 (centres undefined) | inactive

SMILES | Potency
O=C1NC[C@H](c2ccccc2)OC(=O)[C@@H](Cc2ccc(F)cc2)C/C=C\C[C@H]1CC(=O)N(CCO)Cc1ccccc1 | inactive
O=C(O)c1ccc(Oc2c(C(F)(F)F)oc3cc(O)ccc3c2=O)cc1 | inconclusive [inhibitor, single point]
CSC(=S)N/N=C/c1c[nH]c2ccccc12 | active: 3.16 µM
N#CC(=C(O)CN1CCN(c2ccccc2F)CC1)c1nc(-c2ccccc2)cs1 | inconclusive [inhibitor, partial curve, poor fit]
CN(C(=O)c1ccccc1C(=O)OCC(=O)c1ccc(F)cc1)c1ccccc1 | inconclusive [inhibitor, partial curve, poor fit]
Cc1onc(-c2ccccc2)c1C(=O)N1CCCSC1=Nc1ccccc1 | inconclusive [inhibitor, partial curve, poor fit]
CSc1cccc(NC(=O)CSc2ccc(Cl)cc2)c1 | inconclusive [inhibitor, partial curve, poor fit]
O=C(Cn1c(NCCCO)nc2ccccc21)c1ccc(Cl)cc1Cl | inconclusive [inhibitor, single point]
Cn1cccc1C(=O)NC(=O)COC(=O)Cc1coc2ccc3ccccc3c12 | inconclusive [inhibitor, single point]
COc1cc(/C=C/C(=O)OCC(=O)N2CCc3ccccc32)cc(OC)c1OC | inactive
Cc1cccc(C(=O)OCC(=O)N(C)CC(=O)Nc2ccc(Cl)c(C(F)(F)F)c2)c1 | inconclusive [inhibitor, single point]
COc1ccccc1NC(=O)CCN1CCN(c2ccc(Cl)cc2)CC1 | inconclusive [inhibitor, single point]
CC(=O)N(C1=C(Cl)C(=O)c2ccccc2C1=O)c1ccc(C(=O)O)cc1 | inconclusive [inhibitor, partial curve, poor fit]
O=C(NCCOCCn1c(=O)oc2ccccc21)Nc1cccc(Cl)c1 | inconclusive [inhibitor, single point]
COCCn1c(SCC(=O)NNC(=O)c2ccccc2)nc2ccccc21 | inactive
CC(C)c1ccc2oc(=O)cc(CN3CCCCC3)c2c1 | inconclusive [inhibitor, single point]
CSc1cccc(NC(=S)N(CCCN2CCCC(C)C2)Cc2cccs2)c1 (centres undefined) | inconclusive [inhibitor, partial curve, poor fit]
O=C(CCN1CCN(Cc2ccccc2)CC1)Nc1ccc(OCc2ccccc2)cc1 | inconclusive [inhibitor, partial curve, poor fit]
O=[N+]([O-])c1cc(C(F)(F)F)ccc1Sc1ccc2ccccc2n1 | active: 10 µM
CC(CC(=O)C1C(C)C=CCC1(C)C)NNC(N)=O (centres undefined) | inconclusive [inhibitor, full curve, poor fit]
